In PubChem BioAssay AID1745845 (National Center for Advancing Translational Sciences (NCATS), 2022):
Where “and” joins values, the source holds several entries; their conditions need not be identical. Equal values may be shown once. Hit rate of the full screen: of about 360,000 compounds, about 2,600 (0.72%) were called active. The shares of active, inactive and inconclusive entries below differ from those in the screen. Calls follow the shape of the dose curve; as a rule, active = well fitted inhibition curve with a large enough effect; inconclusive = small, poorly fitted or top-dose-only effect; inactive = no such curve, though single readings can be large or run the other way. Potencies of inconclusive entries are doubtful fits and often do not repeat.

test: Primary qHTS for Inhibitors of ATXN expression; conditions: HEK-293 ATXN2-luciferase reporter, luminescence, 24 h; activity change, negative = inhibition: at 57 µM (top of the series); also: nearly all actives have a fitted effect of over 55% in size
How it was run: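 ATXN2-luciferase reporter cells (luciferase flanked by upstream and downstream ATXN2 gene portions) were treated 24 h at 37 °C with compounds at up to 57 uM. SteadyGlo luminescence gave expression; GF-AFC fluorescence gave viability.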
% is scaled to controls: 0 for no effect and ±100 for the full control effect; potency is read from the fitted curve at half-maximal effect; tags tell the direction and shape of the fitted curve.

| SMILES | Potency | activity change, negative = inhibition |
| --- | --- | --- |
| O=C1C=CC[C@@H]2[C@H]3CCCN4CCC[C@@H](CN12)[C@@H]34 | active: 1.53 µM | – |
| Oc1c(Br)c(Br)c(Br)c(Br)c1Br | inconclusive: 31.6 µM [inhibitor, single point] | – |
| CCOC(=O)[C@]12Cc3ccsc3[C@H]1N(Cc1ccccc1)C(=O)c1ccccc12 | inconclusive: 28.2 µM [inhibitor, partial curve] | – |
| Cc1ccc(N2C(=O)NC(=O)/C(=C\C=C\c3ccco3)C2=O)cc1 | active: 10 µM | – |
| CC1(N2CCC(n3c([C@@H]4CCCNC4)nc4ccccc43)CC2)CCCCCCC1 | inconclusive: 27.3 µM [inhibitor, partial curve, poor fit] | – |
| COc1cc2c(cc1OC)-c1c3c(cc4c1[C@@H](C2)N(C)CC4)OCO3 | inconclusive: 15.8 µM [inhibitor, partial curve] | – |
| O=c1[nH]c2ccccc2n1C1CCN(C(CCc2ccccc2)c2nnnn2C2CCCC2)CC1 (stereo unspecified) | active: 25.1 µM | – |
| CC(=O)OC1C(=O)OCC23CCC4(C)OC4C2OC2CC(OC(=O)C=CC=CC(=O)OCCC1C)C3(C)C21CO1 (stereo unspecified) | inconclusive: 0.0075 µM [inhibitor, full curve] | – |
| CC1=CC2OC3CC4OC(=O)C=CC=CC(C(C)O)OCC(O)C5(C)OC5C(=O)OCC2(CC1O)C4(C)C31CO1 (stereo unspecified) | active: 0.112 µM | – |
| C[C@H]1[C@@H](OS(=O)(=O)O)C[C@@H]2C[C@H]([C@@H](O)c3cc(=O)[nH]c(=O)[nH]3)NC3=NC[C@H]1N32 | active: 10 µM | – |
| CN1/C(=C\C=C2C(=O)NC(=O)NC2=O)C(C)(C)c2ccccc21 | inactive | – |
| CC[C@H]1C=CC=CC[C@@H](C)[C@H](O)[C@@](C)(O)C(=O)[C@@H](C)[C@H](O)[C@@H](C)C(=O)[C@@H](C)[C@H](O)[C@@H](C)C=CC(=O)O[C@@H]2[C@@H](C)[C@H](CC1)O[C@]1(CC[C@H](C)[C@H](C[C@@H](C)O)O1)[C@H]2C | inconclusive: 0.0069 µM [inhibitor, full curve, poor fit] | – |
| Nc1c(C(=O)NCc2ccco2)c2nc3ccccc3nc2n1CCN1CCCCC1 | inconclusive: 31.6 µM [inhibitor, partial curve, poor fit] | – |
| COC(=O)C1=C(c2ccc(F)cc2OCc2ccccc2)C[C@@H]2CC[C@H]1N2C(=O)N1CCCCC1 | inactive | – |
| Cn1cc(C2=C(c3cn(C4CCN(Cc5ccccn5)CC4)c4ccccc34)C(=O)NC2=O)c2ccccc21 | inconclusive: 10.9 µM [inhibitor, full curve] and inconclusive: 3.16 µM [inhibitor, partial curve, poor fit] | – |
| Cc1cc(N(CCCl)CCCl)ccc1/C=N/NC(=O)c1ccco1 | inconclusive: 15.8 µM [inhibitor, partial curve, poor fit] | – |
| COc1ccc(CC2C(=O)NC(C)C(=O)N(C)C3C(=O)N(C)C(Cc4ccc(O)c(c4)Oc4ccc(cc4)C3O)C(=O)NC(C)C(=O)NC(C)C(=O)N2C)cc1 (stereo unspecified) | active: 0.0844 µM | – |
| N#Cc1ccc(Cn2cc(C=O)c3ccccc32)cc1 | inconclusive: 17.8 µM [inhibitor, partial curve] | – |
| O=C(Cc1c[nH]c2ccccc12)NNCc1ccc(N(CCCl)CCCl)cc1 | inconclusive: 22.4 µM [inhibitor, partial curve, poor fit] | – |
| Cc1cccc(C)c1NC(=O)CN1CCCC1=O | inactive | – |
| COC(=O)C1=C(c2ccc3ccccc3c2)C[C@@H]2CC[C@H]1N2C(=O)N1CCC(O)CC1 | inactive | – |

| SMILES | Potency | activity change, negative = inhibition |
| --- | --- | --- |
| COc1ccc(C(c2nnnn2-c2c(C)cccc2C)N2CCC3(CC2)C(=O)NCN3c2ccccc2)cc1 (stereo unspecified) | inconclusive: 22.4 µM [inhibitor, single point] | – |
| C=CCC1=C(C)C(OC(=O)C2C(C=C(C)C)C2(C)C)CC1=O (stereo unspecified) | inconclusive: 50.1 µM [inhibitor, partial curve] | – |
| COc1ccc(N2C(=O)/C(=C/C=C/c3ccccc3[N+](=O)[O-])C(=O)NC2=S)cc1 | – | inactive: 2.13% [at 11.3 µM] |
| CCCCCCC(=O)N/N=C/c1c(O)n(CCc2ccccc2)c(=O)[nH]c1=O | active: 17.8 µM | – |
| COc1ccc(CN2CCN(C(=O)COc3ccc4ccccc4c3)CC2)c(OC)c1 | inactive | – |
| Cc1cc(C)cc(N2C(=O)NC(=O)/C(=C/c3cccn3-c3ccc(Cl)cc3)C2=O)c1 | inconclusive: 28.2 µM [inhibitor, single point] | – |
| CN(C)CCSC1c2ccccc2CSc2ccccc21 (stereo unspecified) | inconclusive: 42.3 µM [inhibitor, single point] | – |
| CC(=O)OC(C)(C)/C=C/C(=O)[C@](C)(O)C1[C@H](O)C[C@@]2(C)C3CC=C4C(C[C@H](O)C(=O)C4(C)C)[C@]3(C)C(=O)C[C@]12C (stereo partly specified) | inconclusive: 3.98 µM [inhibitor, partial curve, poor fit] | – |
| C[C@@H]1O[C@@H](O[C@@H]2C=C3CC[C@@H]4[C@@H](CC[C@]5(C)[C@H](c6ccc(=O)oc6)CC[C@@]45O)[C@@]3(C)CC2)[C@H](O)[C@H](O)[C@H]1O | active: 0.0193 µM | – |
| OC(COCc1ccc(Cl)cc1)CN1CC=C(c2ccccc2)CC1 (stereo unspecified) | inactive | – |
| CSCCC(c1nnnn1Cc1ccccc1)N1CCC(n2c(=O)[nH]c3ccccc32)CC1 (stereo unspecified) | inconclusive: 15.8 µM [inhibitor, partial curve, poor fit] | – |
| COC(=O)C1=C(c2ccc(OC(F)(F)F)cc2)C[C@@H]2CC[C@H]1N2C(=O)NC1Cc2ccccc2C1 | inconclusive: 31.6 µM [inhibitor, single point] | – |
| COc1ccc(N(C(=O)Oc2c(C)cccc2C)c2ccnc(Nc3ccc(N4CCN(C)CC4)cc3)n2)c(OC)c1 | inconclusive: 15.3 µM [inhibitor, partial curve] | – |
| CCC(=NCc1ccco1)c1c(O)n(C2CCCCC2)c(=O)[nH]c1=O | inactive | – |
| CC12CCC3C(CCC4(O)CC(O)CCC34C=NO)C1(O)CCC2C1=COC(=O)C1 (stereo unspecified) | inconclusive: 0.316 µM [inhibitor, full curve, poor fit] | – |
| CSCCC(c1nnnn1C1CCCCC1)N1CCC(n2c(=O)[nH]c3ccccc32)CC1 (stereo unspecified) | inconclusive: 35.5 µM [inhibitor, partial curve] | – |
| CCOP(=O)(CCP(=O)(OCC)OCC)OCC.C[CH2][Sn]([Cl])([Cl])[CH2]C | active: 18.9 µM | – |
| COC(=O)C1=C(c2cc3ccccc3s2)C[C@@H]2CC[C@H]1N2C(=O)NCc1ccc(F)cc1 | inconclusive: 31.6 µM [inhibitor, partial curve, poor fit] | – |
| Cc1ccc(C(=O)Nc2ccc(Cl)cc2C(=O)c2ccccc2)cc1 | inactive | – |
| O=C(CCl)c1ccc(Cl)cc1Cl | inconclusive: 28.2 µM [inhibitor, partial curve, poor fit] | – |
| Cc1cccc(C)c1-n1nnnc1C(CCc1ccccc1)N1CCC(n2c(=O)[nH]c3ccccc32)CC1 (stereo unspecified) | inconclusive: 4.47 µM [inhibitor, single point] | – |

| SMILES | Potency | activity change, negative = inhibition |
| --- | --- | --- |
| Cc1nc2c(-c3ccccc3)c(C)nn2c(C)c1CCC(=O)N1CCC2(CC1)OCCO2 | inactive | – |
| COc1ccc(CN2CCN(C(=O)Cc3ccccc3)CC2)c(OC)c1 | inactive | – |
| CCNCCNc1ccc([N+](=O)[O-])c2cccnc12 | inactive | – |
| C=CC[C@@H](CC/C=C/C=C/CC/C=C\[C@@H]1CSC([C@@H]2C[C@@H]2C)=N1)OC | inconclusive: 20 µM [inhibitor, partial curve] | – |
| C[C@]12CCC3C(CC[C@H]4C[C@@H](O)CC[C@]34C)C1CC[C@@H]2OC(=O)[C@H](N)CCCCN (stereo partly specified) | inconclusive: 39.8 µM [inhibitor, single point] | – |
| CCCCn1nnnc1C(CCc1ccccc1)N1CCC(n2c(=O)[nH]c3ccccc32)CC1 (stereo unspecified) | inconclusive: 39.8 µM [inhibitor, single point] | – |
| CN(Cc1cccc(-c2ccncc2)c1)C(=O)Oc1ccccc1Cl | inconclusive: 25.1 µM [inhibitor, partial curve] | – |
| S=P(N1CCOCC1)(N1CC1)N1CC1 | inconclusive: 20 µM [inhibitor, partial curve, poor fit] | – |
| CCC(c1nnnn1Cc1ccccc1)N1CCC(n2c(=O)[nH]c3ccccc32)CC1 (stereo unspecified) | inconclusive: 15.8 µM [inhibitor, partial curve, poor fit] | – |
| C/C(=N\N1CCN(C)CC1)c1c(O)[nH]c(=O)[nH]c1=O | inactive | – |
| COc1nn(CSP(=S)(OC)OC)c(=O)s1 | inconclusive: 44.7 µM [inhibitor, partial curve, poor fit] | – |
| O=C(c1ccc(Cl)cc1)N1CCC2(CC1)OCCO2 | – | inconclusive: -41.5% [inhibitor] |
| CNc1cc(Cl)c2nonc2c1[N+](=O)[O-] | active: 28.2 µM | – |
| N=C(N)c1c(O)n(C2CCCCC2)c(=O)n(C2CCCCC2)c1=O | inactive | – |
| CCC(=Nc1ccc(OC)cc1OC)c1c(O)n(C2CCCCC2)c(=O)[nH]c1=O | inconclusive: 28.2 µM [inhibitor, single point] | – |
| O=c1c2ccccc2nc(-c2ccco2)n1-c1nccs1 | inconclusive: 35.5 µM [inhibitor, partial curve, poor fit] | – |
| COc1ccc(-n2c(/C=C/c3ccc(O)cc3)nc3ccccc3c2=O)cc1 | inconclusive: 23.8 µM [inhibitor, single point] | – |
| CC1CN1c1cc2c(c3c1ccn3C)C1CCC2C1 (stereo unspecified) | inconclusive: 22.4 µM [inhibitor, partial curve, poor fit] | – |
| Cc1ccccc1C1=NCC(=O)N(CC(=O)NCc2ccco2)c2sc3c(c21)CCCC3 | inconclusive: 22.4 µM [inhibitor, partial curve, poor fit] | – |
